{
  "source": "PubChem BioAssay (NCI)",
  "test_system": "MDA-MB-468 breast",
  "experiment": "NCI anticancer screen, dose series, 48 h",
  "note": "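Following 48 hours of exposure in 96-well plates, responses at five concentrations were used to interpolate endpoints linearly. The concentration for 50% growth inhibition is given as GI50.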 Not every entry of the source has a single result; some have several. The list is limited to them. There may be further records. A record mostly stands for its own series of concentrations, which the source does not state; a value can be the end of its range.",
  "data": [
    {"smiles": "CN(Cc1cnc2nc(N)nc(N)c2n1)c1ccc(C(=O)N[C@@H](CCC(=O)O)C(=O)O)cc1", "values": [
      {"measurement": "GI50", "value": "29.1 nM and 633 nM"}
    ]}
  ]
}
